# Measured values: PubChem BioAssay AID504832 (National Center for Advancing Translational Sciences (NCATS), 2011)
# Screen size: about 310,000 compounds; about 18,000 (5.8%) were called active. Inconclusive means that the source gave no clear call. Such entries were picked first, then a sample of the others. Calls follow the shape of the dose curve; as a rule, active = well fitted inhibition curve with a large enough effect; inconclusive = small, poorly fitted or top-dose-only effect, or another doubt; inactive = no such curve, though single readings can be large or run the other way. Potencies of inconclusive entries are left out as doubtful fits.
# Assay: Primary qHTS for delayed death inhibitors of the malarial parasite plastid, 48 hour incubation
# Conditions: P. falciparum luciferase growth in erythrocytes; series mostly up to 28.7 µM; activity change, negative = inhibition: at the top concentration
# Outline: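 Luciferase-expressing parasites in RBCs, 2% Hct / 0.1% parasitemia final; RPMI 1640 + 0.5% Albumax; 37 C, 5% CO2, one generation; luminescence read-out, lower signal = inhibition.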
# % is scaled to controls: 0 for no effect and ±100 for the full control effect; potency is read from the fitted curve at half-maximal effect; tags tell the direction and shape of the fitted curve.
Structure (SMILES),Potency,"activity change, negative = inhibition"
CC(Oc1ccc(F)cc1)C(=O)Nc1cc(S(=O)(=O)N2CCOCC2)ccc1N1CCN(C)CC1 (stereo unspecified),"inconclusive [inhibitor, single point]",
O=C(NCc1ccc(F)cc1)C(Cc1ccccc1)n1cccc1 (stereo unspecified),,inactive: -27%
CCc1cccc(NC(=O)CCCn2c(=O)[nH]c3ccsc3c2=O)c1,,inactive: -6.6%
CC(C)[C@H](NC(=O)c1ccccc1Cl)C(=O)NC1CCCCCC1,"inconclusive [inhibitor, single point]",
COc1cccc(C2=NNC(=NCc3ccccc3)SC2)c1,"inconclusive [inhibitor, single point]",
CN(CC(=O)Nc1ccccc1-c1ccccc1)Cc1ccccc1Cl,"inconclusive [inhibitor, single point]",
Cc1ccccc1OCCC(=O)Nc1ccccc1C(=O)N1CCCCC1,"inconclusive [inhibitor, single point]",
CC(=O)Nc1ccc(NC(=O)c2ccc(C)c(S(=O)(=O)Nc3cccc(C)c3)c2)cc1,active: 11.7 µM,
COc1ccc(Br)cc1CNc1ccc(N2CCOCC2)cc1,"inconclusive [inhibitor, partial curve, poor fit]",
O=C(CN1C(=O)CSc2ncccc21)Nc1cccc(Cl)c1,active: 16.5 µM,
Cc1nc(NCc2cccnc2)c2c3c(sc2n1)CCCC3,"inconclusive [inhibitor, partial curve, poor fit]",
O=C1CSC(c2cn(-c3ccccc3)nc2-c2cc3ccccc3oc2=O)N1Cc1ccco1 (stereo unspecified),active: 10.4 µM,
CN(C)S(=O)(=O)c1ccc(N2CCCC2)c(C(=O)Nc2nc(-c3ccc(F)cc3)cs2)c1,active: 9.28 µM,
CC(C)CCn1c(O)c(N=NC(=O)c2ccco2)c2ccccc21,"inconclusive [inhibitor, single point]",
COc1cc(OC)c2nc(C)c3c(c2c1)N(c1ccc(O)cc1)CC3,"inconclusive [inhibitor, partial curve]",
Oc1c(CN2CCN(c3ccccn3)CC2)cc(Cl)c2cccnc12,active: 2.33 µM,
N#CCCn1cc(C(=O)Nc2cccc(C(=O)O)c2)c(-c2ccc(Cl)cc2)n1,,inactive: 8.07%
COc1ccc(Cl)cc1N(CC(=O)NC1CC2CCC1C2)S(=O)(=O)c1ccccc1 (stereo unspecified),"inconclusive [inhibitor, single point]",
CCOc1cccc(C2NCc3ccccc3-n3cccc32)c1O (stereo unspecified),"inconclusive [inhibitor, full curve]",
COc1ccc(Cn2c(CO)cnc2SCC(=O)Nc2cccc(NC(C)=O)c2)cc1,"inconclusive [inhibitor, single point]",
COc1ccc(C(=O)Nc2cccc(C(=O)N3CCCCC3)c2)cc1,"inconclusive [inhibitor, single point]",
Cc1ccc(/C=C/c2onc(C)c2S(=O)(=O)N2CCC(C(=O)N3CCCCC3)CC2)cc1,"inconclusive [inhibitor, partial curve, poor fit]",
Cc1nc(CS(=O)(=O)c2ccccc2)cc(Sc2ccc(Cl)cc2)n1,"inconclusive [inhibitor, single point]",

Structure (SMILES),Potency,"activity change, negative = inhibition"
O=C(Nc1cccc(S(=O)(=O)Nc2ccc(Cl)cc2)c1)c1ccc(Cl)nc1,,inactive: -9.62%
Cc1nn(CC(C)C)c(Cl)c1C(=O)N(c1ccc(Cl)cc1F)S(C)(=O)=O,,inactive: 34.7%
O=S(=O)(c1ccc(Br)cc1)N1CCOC12CCCCC2,"inconclusive [inhibitor, single point]",
Cc1cccc(C(=O)N/C(=C/c2ccco2)C(=O)N2CCCCCC2)c1,"inconclusive [inhibitor, single point]",
COc1cc(NC(=O)c2ccc(Cl)cc2Cl)ccc1NC(=O)c1cccs1,,inactive: 40.3%
NS(=O)(=O)c1ccc2c(c1)C1C=CCC1C(C1CC=CCC1)N2 (stereo unspecified),,inactive: -16.4%
O=[N+]([O-])c1ccc(N2CCN(c3cccc(Cl)c3)CC2)cn1,,inactive: 0%
COc1ccc(-n2nc(C(=O)Nc3ccc4c(c3)OCO4)c3c4ccccc4n(C)c3c2=O)cc1,"inconclusive [inhibitor, single point]",
CCOC(=O)c1c(N)sc(=S)c2c1CCC2,,inactive: -27.4%
CCOC(=O)C1=C(c2ccccc2)N2CCS(=O)(=O)N=C2S1,,inactive: -0.98%
CCC(=O)N1CCc2cc(S(=O)(=O)CCC(=O)NCc3cccc(OC)c3)ccc21,,inactive: -0.0747%
CCOC(=O)c1cnc2ccc(OCC)cc2c1N(C)Cc1ccccc1,"inconclusive [inhibitor, single point]",
COc1ccc(CCNC(=O)C2CCN(S(=O)(=O)c3ccc(C)cc3)CC2)cc1,"inconclusive [inhibitor, full curve]",
Cc1ccc(N(C(=O)c2ccn[nH]2)C(C(=O)NC2CCCC2)c2cccs2)cc1 (stereo unspecified),"inconclusive [inhibitor, single point]",
Oc1ccccc1-n1c(-c2ccccc2)ccc1-c1ccccc1,active: 9.28 µM,
COc1ccc(C(C(=O)NCc2ccccc2)N(C(=O)c2snc(C(N)=O)c2N)C2CCCC2)cc1 (stereo unspecified),active: 14.7 µM,
COc1ccc([C@]23Cc4cc(OC)c(OC)cc4C(O2)C2=C(CCCC2=O)O3)cc1,"inconclusive [inhibitor, full curve]",
O=S1(=O)N=C(N/N=C/C=C/c2ccccc2)c2ccccc21,"inconclusive [inhibitor, single point]",
CC(=O)Nc1ccc(S(C)(=O)=O)c(C)c1,,inactive: 21.1%
CCOC(=O)Cn1nnnc1C(C(C)C)N(Cc1cc2c(C)cc(C)cc2[nH]c1=O)C1CCCC1 (stereo unspecified),active: 6.57 µM,
CCOC(=O)CC(=O)CSc1nc(-c2cccnc2)ccc1C#N,active: 10.4 µM,
Cc1ccccc1Nc1c(-c2ccncc2)nc2ccc(Cl)cn12,"inconclusive [inhibitor, single point]",
CC(C)(C)OC(=O)COc1cc(O)c2c(=O)cc(-c3ccccc3)oc2c1,"inconclusive [inhibitor, partial curve, poor fit]",
